{"source": "paper PMC7758049", "binders": {"B1": {"name": "Utp2-AD-HA (protein, UniProt Q99207 1-810)", "chain": "MAGSQLKNLKAALKARGLTGQTNVKSKNKKNSKRQAKEYDREEKKKAIAEIREEFNPFEIKAARNKRRDGLPSKTADRIAVGKPGISKQIGEEQRKRAFEARKMMKNKRGGVIDKRFGERDKLLTEEEKMLERFTRERQSQSKRNANLFNLEDDEDDGDMFGDGLTHLGQSLSLEDELANDEEDFLASKRFNEDDAELQQPQRKKTKAEVMKEVIAKSKFYKQERQKAQGIMEDQIDNLDDNFEDVMSELMMTQPKKNPMEPKTDLDKEYDIKVKELQLDKRAAPSDRTKTEEEKNAEAEEKKRELEQQRLDRMNGMIELEEGEERGVEDLDDGFWENEEDYEDDNDGIADSDDDIKFEDQGRDEGFSQILKKKNISISCPRTHDALLDQVKKLDLDDHPKIVKNIIKAYQPKLAEGNKEKLGKFTAVLLRHIIFLSNQNYLKNVQSFKRTQNALISILKSLSEKYNRELSEECRDYINEMQARYKKNHFDALSNGDLVFFSIIGILFSTSDQYHLVITPALILMSQFLEQIKFNSLKRIAFGAVLVRIVSQYQRISKRYIPEVVYFFQKILLTFIVEKENQEKPLDFENIRLDSYELGLPLDVDFTKKRSTIIPLHTLSTMDTEAHPVDQCVSVLLNVMESLDATISTVWKSLPAFNEIILPIQQLLSAYTSKYSDFEKPRNILNKVEKLTKFTEHIPLALQNHKPVSIPTHAPKYEENFNPDKKSYDPDRTRSEINKMKAQLKKERKFTMKEIRKDAKFEARQRIEEKNKESSDYHAKMAHIVNTINTEEGAEKNKYERERKLRGGKK"}}, "key": {"[1]": {"target": "T1, BD-myc-Imp4 (S. cerevisiae) (UniProt P53941)", "T1 sequence": "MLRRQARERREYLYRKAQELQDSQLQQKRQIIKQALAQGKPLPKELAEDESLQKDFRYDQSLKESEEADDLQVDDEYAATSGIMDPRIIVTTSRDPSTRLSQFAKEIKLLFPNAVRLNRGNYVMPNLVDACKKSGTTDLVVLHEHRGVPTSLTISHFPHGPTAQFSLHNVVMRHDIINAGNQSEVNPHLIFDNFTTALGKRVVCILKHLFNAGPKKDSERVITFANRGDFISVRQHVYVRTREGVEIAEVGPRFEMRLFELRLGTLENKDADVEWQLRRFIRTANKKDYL", "test": "two-hybrid; Utp2-AD-HA with BD-myc-Imp4 (wild type or mutant); growth on SD-Leu-Trp-His- with 6 mM 3AT"}, "[2]": {"target": "T2, BD-myc-Imp4-P252L (GAL4BD-c-myc-imp4-P252L) (S. cerevisiae) (UniProt P53941)", "T2 sequence": "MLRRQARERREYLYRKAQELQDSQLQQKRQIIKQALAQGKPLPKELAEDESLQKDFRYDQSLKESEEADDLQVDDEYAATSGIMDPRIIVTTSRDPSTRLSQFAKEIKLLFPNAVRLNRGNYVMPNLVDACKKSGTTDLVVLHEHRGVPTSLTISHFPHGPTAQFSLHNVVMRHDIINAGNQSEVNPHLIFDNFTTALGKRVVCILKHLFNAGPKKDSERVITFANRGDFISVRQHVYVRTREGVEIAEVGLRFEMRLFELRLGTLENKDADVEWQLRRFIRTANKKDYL", "test": "two-hybrid; Utp2-AD-HA with BD-myc-Imp4 (wild type or mutant); growth on SD-Leu-Trp-His- with 6 mM 3AT"}, "[3]": {"target": "T3, BD-myc-Imp4-V170F (GAL4BD-c-myc-imp4-V170F) (S. cerevisiae) (UniProt P53941)", "T3 sequence": "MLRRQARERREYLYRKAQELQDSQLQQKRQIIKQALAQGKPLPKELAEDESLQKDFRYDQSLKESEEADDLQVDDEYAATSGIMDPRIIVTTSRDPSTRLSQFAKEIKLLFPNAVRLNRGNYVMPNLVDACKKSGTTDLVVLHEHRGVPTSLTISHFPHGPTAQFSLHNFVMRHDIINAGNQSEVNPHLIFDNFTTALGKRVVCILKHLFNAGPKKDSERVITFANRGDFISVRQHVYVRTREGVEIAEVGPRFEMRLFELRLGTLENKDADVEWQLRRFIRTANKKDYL", "test": "two-hybrid; Utp2-AD-HA with BD-myc-Imp4 (wild type or mutant); growth on SD-Leu-Trp-His- with 6 mM 3AT"}, "[4]": {"target": "T1, BD-myc-Imp4 (S. cerevisiae)", "test": "two-hybrid; Utp2-AD-HA (wild type or mutant) with BD-myc-Imp4; growth on SD-Leu-Trp-His- with 2 mM 3-Amino-1,2,4-triazole (3AT)"}}, "note": "Results are given in words; binding and its absence hold for the method and conditions named. Some binding calls cover weakened binding; strength is not graded here. Tags and fused reporters may be left off the sequences shown.", "data": [{"binder": "B1", "values": [{"measurement": "binding", "setting": "[1]", "result": "binds"}, {"measurement": "binding", "setting": "[2]", "result": "no binding"}, {"measurement": "binding", "setting": "[3]", "result": "no binding"}, {"measurement": "binding", "setting": "[4]", "result": "binds"}]}]}
